From article PMC4336329 (PLoS ONE, 2015) come the findings set out here.

About 14,000 (4.5%) of roughly 310,000 compounds showed an effect of 50% or more. The effect is printed as a negative number. Some of the results follow.
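Further: peak tail current of the secondary pulse compared with the same well before compound.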

This assay deals with human ether-à-go-go-related gene (hERG) potassium channel (human, UniProt Q12809). The experiment in a line: primary screen, population patch clamp on CHO cells stably expressing hERG.
Chain of human ether-à-go-go-related gene (hERG) potassium channel (Q12809 whole entry, looked up): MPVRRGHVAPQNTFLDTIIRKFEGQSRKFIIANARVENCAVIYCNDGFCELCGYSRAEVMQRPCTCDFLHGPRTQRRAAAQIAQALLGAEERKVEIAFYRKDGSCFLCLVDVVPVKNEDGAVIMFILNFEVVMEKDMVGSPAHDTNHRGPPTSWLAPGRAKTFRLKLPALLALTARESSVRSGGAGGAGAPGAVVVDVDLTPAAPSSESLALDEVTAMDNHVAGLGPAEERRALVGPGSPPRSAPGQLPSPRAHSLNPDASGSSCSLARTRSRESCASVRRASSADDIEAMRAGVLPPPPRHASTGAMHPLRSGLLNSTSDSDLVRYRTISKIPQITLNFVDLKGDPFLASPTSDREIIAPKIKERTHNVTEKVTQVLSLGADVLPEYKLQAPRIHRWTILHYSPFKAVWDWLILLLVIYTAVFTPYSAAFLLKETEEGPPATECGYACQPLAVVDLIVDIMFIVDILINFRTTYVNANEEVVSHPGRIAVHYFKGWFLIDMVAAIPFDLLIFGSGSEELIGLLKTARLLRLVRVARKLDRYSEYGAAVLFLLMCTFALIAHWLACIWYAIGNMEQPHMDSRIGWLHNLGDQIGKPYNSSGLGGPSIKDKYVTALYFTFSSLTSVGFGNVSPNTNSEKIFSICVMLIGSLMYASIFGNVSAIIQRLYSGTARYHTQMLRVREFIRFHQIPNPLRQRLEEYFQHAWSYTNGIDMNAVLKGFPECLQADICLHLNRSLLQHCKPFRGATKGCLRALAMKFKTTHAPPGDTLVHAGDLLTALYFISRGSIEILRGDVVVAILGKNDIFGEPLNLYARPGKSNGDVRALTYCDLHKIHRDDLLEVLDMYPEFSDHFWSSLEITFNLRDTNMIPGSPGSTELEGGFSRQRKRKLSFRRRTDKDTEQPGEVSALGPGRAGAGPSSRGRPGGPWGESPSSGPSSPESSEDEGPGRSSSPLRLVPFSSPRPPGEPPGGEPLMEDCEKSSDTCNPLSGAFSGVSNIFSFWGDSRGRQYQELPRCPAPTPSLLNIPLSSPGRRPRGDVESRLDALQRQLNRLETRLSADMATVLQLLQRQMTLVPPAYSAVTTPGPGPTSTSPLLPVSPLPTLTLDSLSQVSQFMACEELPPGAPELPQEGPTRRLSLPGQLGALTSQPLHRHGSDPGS
In the case of `O=C(COC(=O)Cc1ccccc1F)NNC(=O)c1ccc([N+](=O)[O-])cc1`, the “hERG current change (%, negative = inhibition) at 10uM” value was -6.19%.
The value for `CCCCOc1ccc(C(=O)NCC(=O)NC2CCN(Cc3ccccc3)CC2)cc1` was -25.6%; that for `Cc1c(NC2=CC(=O)CC(C)(C)C2)ccc([N+](=O)[O-])c1C` was -45.2%.
For `O=C(O)c1ccc(N2CC3CC(C2)c2cccc(=O)n2C3)c(NC(=S)Nc2ccc(Br)cc2)c1` (centres unmarked), the “hERG current change (%, negative = inhibition) at 10uM” value stood at 44.9%.
The value for `O=C(O)c1cnn2c(C(F)F)cc(C(F)F)nc12` was 4.27%.
The value for `O=Cc1ccc(-c2ccc(C(=O)O)cc2)o1` was -9.01%.
For the compound `COC(=O)c1ccc(OC)c(CSc2nnc(COc3ccc(OC)cc3)o2)c1`, the “hERG current change (%, negative = inhibition) at 10uM” value was -27.1%.
For the compound `O=C(Cn1cnc2ccccc2c1=O)N1CCN(c2ccc(F)cc2)CC1`, the “hERG current change (%, negative = inhibition) at 10uM” value was -7.04%.
As to `CCC(C(=O)Nc1nc(C)cs1)c1ccccc1` (centres unmarked), the “hERG current change (%, negative = inhibition) at 10uM” value was 15.8%.
Next, `Cc1ccc(NC(=O)CSc2nnc(C3CC3)n2CC2CCCO2)c(C)c1` (centres unmarked): -9.98%; `Cc1ccc(-c2nc3c(c(SCC(=O)N4CCOCC4)n2)COC(C)(C)C3)cc1`: 3.09%; `Cc1ccccc1C(=O)N1CCN(c2ccc([N+](=O)[O-])c(N3CCOCC3)c2)CC1`: -16.3%.
Turning to `Cc1ccc(CNC(=O)Cn2cccc2C(=O)c2ccccc2)cc1`, the “hERG current change (%, negative = inhibition) at 10uM” value came out at 1.89%.
`COc1ccc(CNC(=O)C2CCC(CNC(=O)[C@@H]3Cc4ccccc4CN3)CC2)cc1` (some centres unmarked): the “hERG current change (%, negative = inhibition) at 10uM” value was -0.911%.
Next, `Nn1c(=S)[nH]nc(Cc2ccc(O)cc2)c1=O`: -18.7%; `CCOC(=O)c1c(NC(=O)CN2CCCCC2)sc2c1CCCC2O` (centres unmarked): -4.73%; `Cc1ccc(N=C2NC(=O)/C(=C/c3cccn3C)S2)c(C)c1`: 13.2%.
Next, `O=C(O)[C@@H]1Cc2c([nH]c3ccccc23)C2CCC(=O)N21` (some centres unmarked): 20.7%.
With `CS(=O)(=O)Nn1cnc2ccccc2c1=O`, the “hERG current change (%, negative = inhibition) at 10uM” value is recorded as 10.7%.
In the case of `CC1=CCC2C(=O)N(c3ccc(C(=O)Nc4ccccc4Cl)cc3)C(=O)C2C1` (centres unmarked), the “hERG current change (%, negative = inhibition) at 10uM” value is on record as -0.468%.
For the compound `O=C(NC1CCCc2ccccc21)C1CCN(S(=O)(=O)c2cccc3nonc23)CC1` (centres unmarked), the “hERG current change (%, negative = inhibition) at 10uM” value is listed as 18.7%.
Next, `O=C(C=C1CCN(c2ncc(C(F)(F)F)cc2Cl)CC1)NNC(=O)Nc1ccc(Cl)cc1`: 4.73%; `Cl.N[C@@H](CO)c1nnc([C@H](Cc2ccc(O)cc2)NC(=O)C2CCNCC2)o1`: 3.11%; `CCn1cc(Br)c(C(=O)Nc2cccc(Cl)c2)n1`: -26.2%.
On to `Cn1c(Sc2ccc(C(F)(F)F)cc2[N+](=O)[O-])nnc1-c1ccccc1`, for which the “hERG current change (%, negative = inhibition) at 10uM” value is on record as -62.8%.
The value for `Cc1cnc(NC(=O)CSc2nnc(Cc3ccccc3)n2C)s1` was -12.1%.
The value for `CCC(=O)Nc1ccc(C(=O)OCc2ccccc2)cc1` was 6.38%; that for `O=C(COc1ccc(Cl)cc1Br)NC(=O)NCc1ccccc1` was 13.3%; that for `NC(=O)c1ccc(NC(=O)CSc2nncn2-c2ccccc2)cc1` was 18.5%.
Regarding `CCCCOCCCNc1ncnc2c1[nH]c1ccccc12`, the “hERG current change (%, negative = inhibition) at 10uM” value is reported as -45.5%.
Regarding `Cc1ccc(-c2nnc3n2N=C(c2ccccc2)CS3)cc1`, the “hERG current change (%, negative = inhibition) at 10uM” value stood at 3.15%.
Turning to `C=CCc1cc(C)cc(C)c1OCCn1cncn1`, the “hERG current change (%, negative = inhibition) at 10uM” value is -17.6%.
Turning to `CC(=O)NC12CC3CC(C1)CC(C(=O)OCC(=O)Nc1ncc(Cl)cc1Cl)(C3)C2`, the “hERG current change (%, negative = inhibition) at 10uM” value is -37.8%.
With `CC(C)N(C(=O)COC(=O)c1cccc(N(C)C)c1)c1ccccc1`, the “hERG current change (%, negative = inhibition) at 10uM” value is 2.4%.
Next, `COc1cc(C2NC(=O)NC(C)=C2C(=O)OC2CCCC(C)C2)ccc1O` (centres unmarked): -15.9%.
Next, `N#Cc1ccccc1S(=O)(=O)N1CCN(C(=O)C2CCCC2)CC1`: -5.7%; `CCCNC(=O)NC(=O)CSc1nnc(-c2ccncc2)n1CC`: 11.6%; `CSCCC(NC(=O)C1CC1)c1nc2ccccc2[nH]1` (centres unmarked): 9.28%.
The value for `CC1CCN(C(=O)CN(Cc2ccccc2)S(C)(=O)=O)CC1` was 12.7%; that for `CCOc1ccc(C(=O)NC(C(=O)NCc2cccnc2)C(C)C)cc1` (centres unmarked) was -33.1%; that for `CC1CN(S(=O)(=O)c2ccc(C(=O)NN3CCN(C)CC3)cc2)CC(C)O1` (centres unmarked) was 21.2%.
As for `O=C(N/N=C\c1ccc(-c2ccc(Cl)c(Cl)c2)o1)C(=O)N1CCCC1`, the “hERG current change (%, negative = inhibition) at 10uM” value is -1.58%.
Next, `Cc1ccc(S(=O)(=O)N2CCC(=O)N(C(COCc3ccc(C(F)(F)F)cc3)Cc3ccccc3)CC2)cc1` (centres unmarked): -0.044%; `O=C(Nc1ccc(F)cc1)c1ccc(S(=O)(=O)N2CCOCC2)o1`: -13.1%.
